Experimental data: PubChem BioAssay (Tox21)
“And” between values parts separate entries of the source, which are not always exact repeats. Identical values can stand only once. The inconclusive results got no clear call from the source; some entries with a clear call stand among them for comparison. Potencies beside an inconclusive call are fits to weak or partial responses and may not hold up. A structure can be active in one record and inactive in another. The source made the active and inactive calls. Calls follow the shape of the dose curve; as a rule, active = well fitted curve in the direction sought with a large enough effect in the repeat runs; inconclusive = weak or mixed curves; inactive = no such curve, though single readings can be large; an effect the other way counts as inactive or inconclusive.

What was measured:
[1] = qHTS RealTime-Glo MT Cell Viability Assay in HEK293 cells - 24 hour (AID 1224886); also: nearly all actives have a fitted effect of over 50% in size
How it was run: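 Assay medium contained NanoLuc luciferase plus cell-permeant prosubstrate, added with HEK293 cells at 600 cells/well. After 5 h at 37 C/5% CO2 compounds were added; plates stayed at 37 C for 40 h with serial luminescence reads.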

[2] = qHTS RealTime-Glo MT Cell Viability Assay in HEK293 cells - 8 hour (AID 1224887); also: nearly all actives have a fitted effect of over 50% in size
How it was run: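 Luminescence, which tracks viable cell number through reduction of the prosubstrate to a NanoLuc substrate, was read over continuous 37 C culture. Cells (600/well) were premixed with reagent and rested 5 h before 23 nL of compound in DMSO was pinned.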

[3] = qHTS RealTime-Glo MT Cell Viability Assay in HepG2 cells - 16 hour (AID 1224885); also: nearly all actives have a fitted effect of over 50% in size
How it was run: (§1)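 qHTS, HepG2, 600 cells/well, RealTime-Glo (NanoLuc + prosubstrate) added with cells; 5 h preincubation; DMSO compound addition; 37 C; luminescence at 0/8/16/24/32/40 h.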

[4] = A CellTox Green Cytotoxicity Assay to monitor cytotoxicity in HEK293 cells - 16 hour (AID 1224888); also: nearly all actives have a fitted effect of over 35% in size
How it was run: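 Fluorescence from a DNA-binding dye excluded by viable cells was measured repeatedly in the same HEK293 wells (600 cells/well) during continuous compound exposure at 37 C. Each assay gives one read point: 0, 8, 16, 24, 32 or 40 h.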

[5] = qHTS assay to identify small molecule antagonists of the estrogen receptor alpha (ER-alpha) signaling pathway using the BG1 cell line in the presence of 0.1 nM 17-beta-estradiol - cell viability counter screen (AID 1259241); also: nearly all actives have a fitted effect of over 40% in size
How it was run: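 Following 5 days in phenol red-free medium with charcoal-stripped serum, VM7Luc4E2 cells received test compounds alongside 0.1 nM 17beta-estradiol (final) at 37C for 22 hr. Live cells were then quantified via protease-substrate fluorescence.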

[6] = qHTS RealTime-Glo MT Cell Viability Assay in HepG2 cells - 0 hour (AID 1224889); also: nearly all actives have a fitted effect of over 50% in size
How it was run: as §1

[7] = A CellTox Green Cytotoxicity Assay to monitor cytotoxicity in HepG2 cells - 8 hour (AID 1224890); also: nearly all actives have a fitted effect of over 45% in size
How it was run: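 Real-time cytotoxicity: fluorescence of a cell-impermeant cyanine dye binding DNA of dead HepG2 cells, measured repeatedly (0–40 h) during compound exposure at 37 C. Cells seeded 600/well with reagent, dosed after 5 h.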
Potency is read from the fitted curve at half-maximal effect; tags tell the direction and shape of the fitted curve.

O=C(Cl)c1c(Cl)c(Cl)c(C(=O)Cl)c(Cl)c1Cl
Potency [1]: inconclusive: 38.9 µM [rising, partial curve, poor fit]

COCCCN
Potency [1]: inactive

CCCCCC#CC(=O)OC
Potency [1]: inconclusive: 43.6 µM [rising, partial curve]

c1ccc2cc3ccccc3cc2c1
Potency [1]: inactive
Potency [2]: inconclusive: 54.9 µM [rising, partial curve, poor fit]

NC(N)=NC(N)=NCCc1ccccc1
Potency [1]: inconclusive: 13.7 µM [cytotoxic, partial curve] and inconclusive: 7.76 µM [cytotoxic, full curve]
Potency [2]: inconclusive: 24.4 µM [cytotoxic, partial curve, poor fit]

O=C(COc1ccc(Cl)cc1)N1CCN(Cc2ccc3c(c2)OCO3)CC1
Potency [1]: inconclusive: 19 µM [cytotoxic, partial curve, poor fit]

C[C@H]1O[C@@H](O[C@H]2[C@@H](O)C[C@H](O[C@H]3[C@@H](O)C[C@H](O[C@H]4CC[C@@]5(C)[C@H](CC[C@@H]6[C@@H]5C[C@@H](O)[C@]5(C)[C@@H](C7=CC(=O)OC7)CC[C@]65O)C4)O[C@@H]3C)O[C@@H]2C)C[C@H](O)[C@@H]1O
Potency [1]: active: 69.2 nM and active: 61 nM

O=C(CC(C(=O)OC1CCCCC1)S(=O)(=O)O)OC1CCCCC1 (stereo not drawn)
Potency [1]: inconclusive: 27.2 µM [rising, partial curve]
Potency [2]: inactive

CCCCCCCCCCCCCC[P+](CCCC)(CCCC)CCCC (tested in a mixture with another compound)
Potency [3]: active: 19.6 µM
Potency [4]: active: 17.5 µM

C=CC(=O)OCCOCCOCCOCCOC(=O)C=C
Potency [3]: inconclusive: 49.2 µM [cytotoxic, partial curve] and inconclusive: 34.3 µM [cytotoxic, partial curve]
Potency [2]: inconclusive: 34.8 µM [cytotoxic, partial curve, poor fit] and inconclusive: 48.5 µM [cytotoxic, single point]
Potency [5]: inconclusive: 30.8 µM [cytotoxic, partial curve] and inconclusive: 68 µM [cytotoxic, single point]

CN(C)c1ccc(SC#N)cc1
Potency [1]: inactive

O=Nc1ccc(Nc2ccccc2)cc1
Potency [3]: inconclusive: 55.3 µM [cytotoxic, single point]
Potency [6]: active: 19.6 µM and inconclusive: 19.5 µM [cytotoxic, partial curve]
Potency [5]: inconclusive: 61.4 µM [cytotoxic, partial curve, poor fit]

CC(C)c1ccc2sc3ccccc3c(=O)c2c1
Potency [1]: inconclusive: 21.9 µM [cytotoxic, partial curve]
Potency [2]: inconclusive: 24.5 µM [cytotoxic, partial curve]

CC[C@]12CCCN3CCc4c(n(c5ccccc45)[C@@](O)(C(=O)OC)C1)[C@@H]32
Potency [1]: inactive

COCC(=O)Nc1c(I)c(C(=O)NCC(O)CO)c(I)c(C(=O)N(C)CC(O)CO)c1I (stereo not drawn)
Potency [1]: inconclusive: 10.7 µM [cytotoxic, single point]
Potency [2]: inconclusive: 10.7 µM [cytotoxic, single point]

CC(C)Cc1ccccc1
Potency [1]: inconclusive: 17.1 µM [rising, full curve]

CSCCC=O
Potency [1]: inconclusive: 34.7 µM [rising, partial curve, poor fit]

CC[C@]1(O)C[C@H]2CN(CCc3c([nH]c4ccccc34)[C@@](C(=O)OC)(c3cc4c(cc3OC)N(C=O)[C@H]3[C@@](O)(C(=O)OC)[C@H](OC(C)=O)[C@]5(CC)C=CCN6CC[C@]43[C@@H]65)C2)C1
Potency [1]: inconclusive: 0.0017 µM [cytotoxic, full curve, poor fit]

CCCCOCCOCCOCc1cc2c(cc1CCC)OCO2
Potency [1]: inconclusive: 22.1 µM [cytotoxic]
Potency [2]: inconclusive: 14 µM [cytotoxic, full curve]

CN(C)C(=O)C1(N2CCCCC2)CCN(CC[C@@]2(c3ccc(Cl)c(Cl)c3)CN(C(=O)c3ccccc3)CCO2)CC1
Potency [3]: active: 36.3 µM
Potency [4]: active: 45.8 µM
Potency [7]: active: 45.8 µM

CCOC(=O)C1=C(C)NC(C)=C(C(=O)OCC)C1c1ccccc1/C=C/C(=O)OC(C)(C)C
Potency [3]: inconclusive: 21.3 µM [cytotoxic, partial curve]
Potency [6]: active: 3.38 µM
Potency [7]: inactive

CC(C)c1cccc(C(C)C)c1N1C(=O)c2ccc(O)cc2C1=O
Potency [1]: inconclusive: 54.9 µM [cytotoxic, partial curve, poor fit]

Cn1cc(C(=O)[C@@H]2CCc3nc[nH]c3C2)c2ccccc21
Potency [1]: inconclusive: 9.52 µM [cytotoxic, partial curve, poor fit]
Potency [2]: inconclusive: 10.7 µM [cytotoxic, partial curve, poor fit]
Potency [4]: inactive

CCN(CC)CCOC(=O)C1(C2CCCCC2)CCCCC1
Potency [1]: inconclusive: 21.3 µM [cytotoxic, partial curve]
Potency [2]: inconclusive: 21.3 µM [cytotoxic, partial curve]
Potency [4]: inconclusive: 26.8 µM [activator, single point]
Potency [6]: inconclusive: 21.3 µM [rising, partial curve, poor fit]
Potency [7]: inconclusive: 26.8 µM [activator, single point]

CCCCCCCCCCCCOCC1CO1 (stereo not drawn)
Potency [1]: inconclusive: 105 µM [cytotoxic, partial curve, poor fit]

Oc1c(Cl)cc(Cl)c2cccnc12
Potency [1]: inconclusive: 19 µM [cytotoxic, partial curve]

CCCCCCCO
Potency [1]: inactive

S=P(N1CC1)(N1CC1)N1CC1
Potency [1]: inconclusive: 23.1 µM [cytotoxic, partial curve]

CCCCCCCCCC
Potency [1]: inconclusive: 54.9 µM [rising, partial curve, poor fit]

O=CCc1ccccc1
Potency [1]: inactive

O=c1c(O)c(-c2ccc(O)cc2)oc2cc(O)cc(O)c12
Potency [1]: inconclusive: 43.5 µM [cytotoxic, partial curve] and inconclusive: 26.3 µM [cytotoxic, partial curve, poor fit]
Potency [2]: inconclusive: 43.5 µM [cytotoxic, partial curve] and inconclusive: 10.5 µM [cytotoxic, full curve]

c1ccc(Sc2ccccc2)cc1
Potency [1]: inconclusive: 0.219 µM [cytotoxic, single point]
Potency [2]: inactive

CC(C)Oc1ccc2c(=O)c(-c3ccccc3)coc2c1
Potency [1]: inconclusive: 9.52 µM [cytotoxic, partial curve]
Potency [2]: inconclusive: 9.52 µM [cytotoxic, partial curve] and inconclusive: 21.3 µM [cytotoxic, partial curve, poor fit]

c1ccc(-c2ccc(C(c3ccccc3)n3ccnc3)cc2)cc1 (stereo not drawn)
Potency [1]: active: 30.1 µM
Potency [2]: inconclusive: 30.1 µM [cytotoxic, partial curve, poor fit]

COc1ccc2[nH]cc(CCNC(C)=O)c2c1
Potency [3]: inconclusive: 21.9 µM [cytotoxic, single point]
Potency [6]: inconclusive: 21.9 µM [cytotoxic, single point]

S=C(NC1CCCCC1)NC1CCCCC1
Potency [1]: active: 17 µM and active: 21.9 µM
Potency [2]: inconclusive: 15.2 µM [cytotoxic, full curve] and inconclusive: 30.9 µM [cytotoxic, partial curve]

Nc1ccc(Nc2ccccc2)cc1
Potency [1]: inconclusive: 49 µM [cytotoxic, single point] and inconclusive: 43.6 µM [cytotoxic, single point]
Potency [2]: active: 21.6 µM and inconclusive: 38.9 µM [cytotoxic, partial curve] and active: 21.9 µM
Potency [6]: inconclusive: 54.9 µM [cytotoxic, partial curve, poor fit]
Potency [5]: inconclusive: 30.6 µM [cytotoxic, partial curve] and inconclusive: 27.3 µM [cytotoxic, partial curve]

CCCCCCCCCCCCCCNCCO
Potency [1]: active: 15.1 µM
Potency [4]: active: 21.3 µM
Potency [6]: inconclusive: 7.56 µM [rising, full curve]
Potency [7]: inconclusive: 16.9 µM [activator, partial curve, poor fit]

CN(C[C@@H](CC[N+]12CCC(C3CCCCC3)(CC1)CC2)c1ccc(Cl)c(Cl)c1)C(=O)c1cc(C(F)(F)F)cc(C(F)(F)F)c1
Potency [1]: active: 3.09 µM
Potency [2]: active: 3.47 µM
Potency [6]: inconclusive: 43.6 µM [cytotoxic, partial curve]

CCCCCCCC/C=C/CCCCCCCC1=NCCN1CCO
Potency [2]: active: 43.6 µM

CCCCCCCCCCCCCC(=O)OC(C)C
Potency [1]: active: 3.47 µM
Potency [6]: inactive
Potency [5]: inactive

CCCCC(CC)COC(=O)CC(C(=O)OCC(CC)CCCC)S(=O)(=O)O (stereo not drawn)
Potency [1]: inconclusive: 52.9 µM [cytotoxic, single point] and inconclusive: 34.7 µM [cytotoxic, partial curve]
Potency [2]: inconclusive: 47.1 µM [cytotoxic, single point] and inconclusive: 38.9 µM [cytotoxic, partial curve]
Potency [4]: inconclusive: 37.4 µM [activator, partial curve, poor fit]
Potency [7]: inconclusive: 49 µM [activator, single point]
Potency [5]: inconclusive: 66 µM [cytotoxic, partial curve, poor fit]
